# Experimental data taken from PubChem BioAssay AID1460 (National Center for Advancing Translational Sciences (NCATS), 2008).
# Where “and” joins values, the source holds several entries; their conditions need not be identical. Equal values may be shown once. Among all 270,000 compounds or so, about 5,800 (2.1%) were called active. Inconclusive results, whose numbers are uncertain, are shown with a selection of clear calls. Calls come from the whole dose curve; as a rule, active = well fitted inhibition curve with a large enough effect; inconclusive = small, poorly fitted or top-dose-only effect; inactive = flat fitted curve, though single readings scatter. Potencies of inconclusive entries are doubtful fits and often do not repeat.
# Molecular target: Microtubule-associated protein tau (Homo sapiens) (UniProt P10636)
# Chain of UniProt P10636 (P10636 whole entry, looked up): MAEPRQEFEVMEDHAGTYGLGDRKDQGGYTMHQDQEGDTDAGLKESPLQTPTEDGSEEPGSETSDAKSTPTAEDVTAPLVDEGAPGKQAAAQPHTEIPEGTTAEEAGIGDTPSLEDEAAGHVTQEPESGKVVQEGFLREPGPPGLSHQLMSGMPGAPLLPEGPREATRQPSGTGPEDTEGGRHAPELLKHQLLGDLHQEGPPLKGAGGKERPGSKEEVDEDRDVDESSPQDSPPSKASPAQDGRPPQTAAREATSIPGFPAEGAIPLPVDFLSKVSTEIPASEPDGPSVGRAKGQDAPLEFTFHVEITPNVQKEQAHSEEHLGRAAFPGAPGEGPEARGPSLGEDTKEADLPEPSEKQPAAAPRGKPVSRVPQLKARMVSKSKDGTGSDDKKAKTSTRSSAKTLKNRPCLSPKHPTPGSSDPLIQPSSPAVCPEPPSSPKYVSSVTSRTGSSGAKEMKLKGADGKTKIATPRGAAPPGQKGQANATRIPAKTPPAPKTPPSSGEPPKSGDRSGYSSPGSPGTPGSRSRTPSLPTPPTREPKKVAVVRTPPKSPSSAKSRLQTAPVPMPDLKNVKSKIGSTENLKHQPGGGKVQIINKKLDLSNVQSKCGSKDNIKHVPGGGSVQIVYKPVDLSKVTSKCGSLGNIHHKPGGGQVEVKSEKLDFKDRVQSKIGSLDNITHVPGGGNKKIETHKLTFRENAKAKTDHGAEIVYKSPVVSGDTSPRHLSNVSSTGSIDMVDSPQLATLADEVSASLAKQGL
# Experiment: qHTS for Inhibitors of Tau Fibril Formation, Thioflavin T Binding; note: nearly all actives have a fitted effect of over 55% in size
# Settings: recombinant tau K18 P301L, heparin-induced fibrillization, ThT fluorescence; series mostly up to 57.4 µM; activity, negative = inhibition: at the top concentration
# Outline: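 ThT emission at 510 nm, taken 1 hr after adding 30 uM dye, quantifies aggregates formed when 20 uM heparin acts on human tau K18 P301L for 6 hr at 37 C.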
# % is set by controls: 0 for no effect and ±100 for the full control effect; potency is the fitted concentration of half-maximal effect; tags give direction and shape of the fitted curve.
SMILES,Potency,"activity, negative = inhibition"
C[C@@H]1C(=O)CC2C(C)(C)CCC[C@]2(C)[C@@]1(O)CCc1ccoc1 (stereo not given in full),"inconclusive: 44.7 µM [inhibitor, single point]",–
CCN(CCNC(=O)CCCn1nc(C)n2c(cc3sccc32)c1=O)c1ccccc1,"inconclusive: 17.8 µM [inhibitor, partial curve]",–
COc1ccc(C(=O)Oc2ccc3c(C)cc(=O)oc3c2C(C)=O)cc1,"inconclusive: 0.316 µM [inhibitor, single point]",–
COC(=O)c1cc(C(=O)OCC(=O)Nc2cc(C)on2)cc([N+](=O)[O-])c1,"inconclusive: 0.158 µM [inhibitor, full curve, poor fit]",–
CCOC(=O)c1c(-c2ccccc2)csc1NC(=O)C1CCCO1 (stereo not given),"inconclusive: 39.8 µM [inhibitor, single point]",–
CC(=O)Nc1sc(N/N=C\c2ccc(O)cc2)nc1-c1cccs1,active: 14.1 µM,–
CCc1ccc(C(=O)CCC2CCCCC2=O)cc1 (stereo not given),–,inactive: -18.1%
N#CC(c1ccc(=O)[nH]n1)c1ccc(Cl)cc1Cl (stereo not given),–,inactive: -4.56%
O=C(NNC(=S)Nc1ccc(Br)cc1Cl)c1ccco1,"inconclusive: 12.6 µM [inhibitor, partial curve]",–
CC(C)(C)c1cc(CN2CCN(CCC#N)CC2)cc(C(C)(C)C)c1O,"inconclusive: 28.2 µM [inhibitor, single point]",–
Nn1c(-c2cccs2)nc2sc3c(c2c1=O)CCCC3,"inconclusive: 17.8 µM [inhibitor, partial curve]",–
O=C(C1CCCN(S(=O)(=O)Cc2ccccc2)C1)N1CCC(Cc2ccccc2)CC1 (stereo not given),"inconclusive: 31.6 µM [inhibitor, single point]",–
N#CC1=C(N)Oc2n[nH]c(-c3cccs3)c2C1c1ccoc1 (stereo not given),"inconclusive: 28.2 µM [inhibitor, partial curve]",–
CCc1ccc(CNC(=O)Cn2ccc3cc(S(=O)(=O)N4CCCCCC4)ccc32)cc1,"inconclusive: 31.6 µM [activator, single point]",–
Cc1c(C(=O)N2CCCC2)oc2c1-c1[nH]ncc1CC2,"inconclusive: 39.8 µM [inhibitor, partial curve]",–
CCc1ccc(NC(=O)Nc2cn(C)c(=O)c3ccccc23)cc1,"inconclusive: 39.8 µM [inhibitor, single point]",–
C/C(=N\NC(=O)c1ccn(C)n1)c1cccc(NC(=O)c2ccc(C)s2)c1,"inconclusive: 12.6 µM [inhibitor, partial curve]",–
O=C(NC1CCCC1)c1ccc2c(=O)n(Cc3ccccc3)c(SCc3ccc([N+](=O)[O-])cc3)nc2c1,–,inactive: -5.91%
CCOC(=O)c1c(NC(=O)CCN2CCOCC2)sc(C)c1-c1ccccc1,"inconclusive: 39.8 µM [inhibitor, single point]",–
Clc1ccc(Cn2c(CN3CCCC3)nc3ccccc32)cc1,inactive,–
CC(=O)NC(C)C(=O)OCC(=O)Nc1ccc(Br)cc1 (stereo not given),"inconclusive: 0.0224 µM [inhibitor, full curve, poor fit]",–
CCN(CCCNC(=O)CSc1cc(=O)n(CC)c2ccccc12)c1ccccc1,"inconclusive: 31.6 µM [inhibitor, single point]",–
Cc1ccc(S(=O)(=O)N/N=C\c2ccc([N+](=O)[O-])o2)cc1,"inconclusive: 35.5 µM [inhibitor, single point]",–
NS(=O)(=O)c1ccc(CCNC(=O)CSc2ccsc2[N+](=O)[O-])cc1,"inconclusive: 35.5 µM [inhibitor, single point]",–

SMILES,Potency,"activity, negative = inhibition"
COc1cccc(CNC(=O)c2ccc(-c3nc(CS(=O)c4ccccc4)c(C)o3)cc2)c1 (stereo not given),–,inactive: 4.55%
COc1ccc(NC(=O)Cn2cnc3ccc(S(=O)(=O)N4CCC(C)CC4)cc3c2=O)c(OC)c1,"inconclusive: 39.8 µM [inhibitor, single point]",–
COc1ccc2c(c1)Cc1sc(NC(=O)c3ccccc3C)nc1-2,"inconclusive: 3.98 µM [inhibitor, partial curve]",–
CC(C)(C)CN1CCNC(=O)C1CC(=O)N1CCN(c2ccccc2)CC1 (stereo not given),–,inactive: -12.9%
COc1ccc(SCc2cc(=O)c3ccc(C)c(C)c3[nH]2)cc1,–,inactive: -4.47%
COc1cccc(C(=O)Nc2ccc(Oc3cccc(C(F)(F)F)c3)nc2)c1,–,inactive: -1.27%
O=c1[nH]c(CSc2ncnc3sc(-c4ccccc4)cc23)nc2ccccc12,"inconclusive: 0.891 µM [inhibitor, full curve]",–
CCNCc1nc2cc(OC)c(OC)cc2c(=O)[nH]1,–,inactive: -7.18%
Cc1c(C)n(Cc2ccccc2)c2ccc(C(=O)N3CCN(c4ccccc4F)CC3)cc12,–,inactive: 0.0458%
CSc1cccc(NC(=S)N(CCCN2CCCC2)Cc2cccn2Cc2ccc(Cl)cc2)c1,"inconclusive: 20 µM [inhibitor, single point]",–
COc1ccc(/C=C(\NC(=O)c2ccc(C)cc2)C(=O)Nc2c(C)n(C)n(-c3ccccc3)c2=O)cc1,–,inactive: 1.75%
CCC(=O)c1ccc(OCc2ccc(C(=O)OC)cc2)c(OC)c1,"inconclusive: 1.26 µM [inhibitor, full curve]",–
Cc1cccc(NC(=S)N(C)C)c1C,"inconclusive: 28.2 µM [inhibitor, single point]",–
Cc1ccc(Sc2ccc(N3CCCC(C(=O)Nc4ccc(Br)cc4)C3)nn2)cc1 (stereo not given),–,inactive: -0.717%
COc1ccc(/C(C)=N/OCC(=O)N=Nc2c(O)[nH]c3ccc(Br)cc23)cc1,"inconclusive: 2.24 µM [inhibitor, full curve]",–
O=C(COC(=O)c1ccc(N2CCOCC2)c([N+](=O)[O-])c1)Nc1ccc2c(c1)OCO2,"inconclusive: 15.8 µM [inhibitor, partial curve]",–
O=[N+]([O-])c1ccc(/C=C/C2=NN(c3ccccc3)C(c3ccco3)C2)cc1 (stereo not given),active: 3.55 µM,–
Cc1ccc(N2C(=O)CC(N3CCN/C3=C3\CC/C(=C\c4ccccc4)C3=O)C2=O)cc1 (stereo not given),–,inactive: -4.71%
O=C(CN1CCN(c2ccccc2Cl)CC1)NC1CCCc2ccccc21 (stereo not given),"inconclusive: 35.5 µM [inhibitor, single point]",–
N#Cc1ccc(/C=C/C(=O)c2ccc3c(c2)OCO3)cc1,"inconclusive: 14.1 µM [inhibitor, partial curve]",–
O=C(/C=C/c1ccc[nH]1)c1ccc(F)cc1,"inconclusive: 14.1 µM [inhibitor, partial curve, poor fit]",–
COc1cc(OC)c(NC(=O)CCc2ccccc2)cc1Cl,–,inactive: -13.6%
C/C(=N\NC(=O)c1ccc2c(c1)OCO2)c1ccc(C(=O)O)s1,"inconclusive: 2.51 µM [inhibitor, partial curve]",–
Cc1cc(C)c(NC(=O)/C(=C/c2ccccc2)c2ccccc2)c(C)c1,"inconclusive: 39.8 µM [inhibitor, single point]",–

SMILES,Potency,"activity, negative = inhibition"
CC(=O)c1ccc(NC(=O)Nc2ccc3snnc3c2)cc1,"inconclusive: 25.1 µM [activator, single point]",–
CC1CCC/C(=N\Nc2ccc(Cl)c(C(=O)O)c2)C1 (stereo not given),"inconclusive: 17.8 µM [inhibitor, single point]",–
O=C1c2ccccc2C(=O)c2c1cccc2N1CCN(Cc2ccccc2)CC1,active: 14.1 µM,–
CS(=O)(=O)c1ccc(C(=O)Nc2ccc(N3CCCCC3)cc2)c(Cl)c1,"inconclusive: 3.55 µM [inhibitor, full curve]",–
CCOC(=O)c1ccc(N2C(=O)c3n[nH]c(-c4ccco4)c3C2c2ccc(OC)cc2OC)cc1 (stereo not given),–,inactive: -1.55%
CCSc1ncc(/C=N/Nc2ccccc2)n1C,active: 4.47 µM,–
NNC(=O)c1cc(-c2ccc(N)cc2)nc2ccc(Br)cc12,"inconclusive: 8.91 µM [inhibitor, partial curve, poor fit]",–
Fc1cccc(Cl)c1CSc1ncn[nH]1,–,inactive: 9.39%
Cc1ccc(NC(=O)Cc2ccc(NC(=O)N3CCCCc4ccccc43)cc2)cc1Cl,–,inactive: 5.51%
O=C(O)/C=C/c1ccc(O)c(O)c1,"inconclusive: 10 µM [inhibitor, partial curve] and inconclusive: 15.8 µM [inhibitor, partial curve] and inconclusive: 44.7 µM [inhibitor, single point]",–
N#Cc1c(NC(=S)NC(=O)c2ccccc2)sc2c1CCC2,"inconclusive: 31.6 µM [inhibitor, partial curve]",–
COc1ccc(/C=C/C(=O)Nc2ccc(C)cc2)cc1,–,inactive: 12.4%
O=C(COC(=O)C1CCCCC1)Nc1ccccc1OC(F)F,–,inactive: -7.82%
O=C(NC(=S)Nc1cccc(Cl)c1N1CCOCC1)c1cccs1,–,inactive: -12.9%
Fc1ccccc1N1CCN(Cc2nnc(-c3ccc4c(c3)OCO4)o2)CC1,"inconclusive: 1.41 µM [inhibitor, full curve, poor fit]",–
CCOP(=O)(OCC)c1nc(/C=C/c2ccccc2)oc1NCc1ccccc1,"inconclusive: 20 µM [inhibitor, partial curve]",–
CCc1nnc2n1N=C(c1ccc([N+](=O)[O-])cc1)CS2,"inconclusive: 39.8 µM [inhibitor, single point]",–
O=C(c1cc(C(=O)N2CCOCC2)c2nc3ccccc3n2c1)c1ccccc1O,"inconclusive: 1.78 µM [inhibitor, partial curve]",–
O=C(Nc1ccc(N2CCN(c3ncccc3C(F)(F)F)CC2)nc1)c1cccs1,active: 7.94 µM,–
CCCCOc1ccc(-c2nnc(-c3ccco3)o2)cc1,"inconclusive: 15.8 µM [inhibitor, partial curve, poor fit]",–
CC(/C=C1\SC(=S)N(NC(=O)c2ccncc2)C1=O)=C\c1ccccc1,active: 10 µM,–
COC(=O)c1ccc(NC(=O)Nc2ccccc2C)cc1,"inconclusive: 3.98 µM [inhibitor, single point]",–
